Reference: PubChem BioAssay AID651820 (National Center for Advancing Translational Sciences (NCATS), 2012)
The campaign covered roughly 340,000 compounds. About 12,000 (3.5%) were called active. The inconclusive results got no clear call from the source; some entries with a clear call stand among them for comparison. Calls come from the whole dose curve; as a rule, active = well fitted inhibition curve with a large enough effect; inconclusive = small, poorly fitted or top-dose-only effect, or another doubt; inactive = no such curve, though single readings can be large or run the other way. No potency is given beside an inconclusive call; the fits are too rough.

Assay: qHTS Assay for Inhibitors of Hepatitis C Virus (HCV)
Settings: Huh7.5.1 HCVcc-Cre (HCVcc is cell-culture hepatitis C virus) infection, luciferase reporter, 44 h; series mostly up to 41.8 µM
Outline: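 Reporter virus HCVcc-Cre (~0.5 moi) infects cells exposed to compound; seeding density 1,000 cells/well with 4 h settling beforehand. Luminescence, 15 sec read, taken 44 h post-infection following a 15 min RT substrate incubation.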
Potency is the fitted concentration of half-maximal effect; tags give direction and shape of the fitted curve.

Compound | Potency
Cc1cc(C(=O)OCC(=O)Nc2cccc([N+](=O)[O-])c2)c(C)o1 | inconclusive [inhibitor, single point]
CCCc1cc(=O)[nH]c(SCC(=O)NC(=O)NC2CCCC2)n1 | inconclusive [inhibitor, single point]
CCC(C)NCCOCCOc1ccc(Br)cc1C (centres undefined) | active: 11.2 µM
CCOC(=O)c1c(NC(=S)Nc2ccc(C)cc2)sc2c1CCC2 | inconclusive [inhibitor, partial curve]
Cc1ccc2nc(NC(=O)C3CCN(S(=O)(=O)c4cc([N+](=O)[O-])ccc4Cl)CC3)sc2c1 | active: 6.31 µM
Cc1ccccc1CNC(=O)CC1C(=O)NCCN1Cc1c(F)cccc1Cl (centres undefined) | inactive
CCNc1ccc(C(=O)OCC(=O)N2c3ccccc3NC(=O)C2(C)C)cc1[N+](=O)[O-] | inconclusive [inhibitor, partial curve]
COC(=O)N/N=C/c1ccc(-c2ccc(Cl)c(Cl)c2)o1 | inconclusive [inhibitor, single point]
Cc1ccn2c(NC3CCCC3)c(-c3ccccn3)nc2c1 | inconclusive [inhibitor, single point]
Cc1ccc(Nc2ccc(S(=O)(=O)N3CCOCC3)cc2[N+](=O)[O-])c(C)c1 | inconclusive [inhibitor, single point]
COc1ccc(S(=O)(=O)N(C)C[C@H]2Oc3ccc(NC(=O)Nc4ccc(C(F)(F)F)cc4)cc3C(=O)N([C@H](C)CO)C[C@@H]2C)cc1 | inconclusive [inhibitor, single point]
O=c1cc(-c2ccccc2)nc2c(-c3ccccc3)c(C(F)(F)F)[nH]n12 | inactive
NC(=O)c1cnn(-c2cc(Oc3ccccc3)ncn2)c1N | inactive
Cc1ccc(S(=O)(=O)Nc2ccsc2C#N)cc1 | inactive
CC(=O)c1ccc(S(=O)(=O)N2CCN(C(C)=O)CC2)cc1 | inactive
O=C(CCc1nc(-c2ccccc2Cl)no1)Nc1cccnc1 | active: 12.6 µM
Cc1ccc2nc(SCC(=O)N3CCC(Cc4ccccc4)CC3)nc(=O)n2c1 | inconclusive [inhibitor, partial curve]
Cc1ccc(S(=O)(=O)N2CCCCC2C(=O)N2CCN(Cc3ccccc3)CC2)cc1 (centres undefined) | inconclusive [inhibitor, partial curve]
COC(=O)c1ccccc1NC(NC(=O)c1ccco1)C(=O)c1ccccc1 (centres undefined) | inconclusive [inhibitor, single point]
